Structures are written as SMILES. About 2,200 (0.71%) of roughly 310,000 compounds showed an effect of 50% or more. The effect is printed as a negative number. Some of the results follow.

The values below come from paper PMC4336329 (PLoS ONE, 2015).

In the test the target is human ether-à-go-go-related gene (hERG) potassium channel (human, UniProt Q12809). The experiment in a line: primary screen, population patch clamp on CHO cells stably expressing hERG.
human ether-à-go-go-related gene (hERG) potassium channel, sequence (Q12809 whole entry, looked up): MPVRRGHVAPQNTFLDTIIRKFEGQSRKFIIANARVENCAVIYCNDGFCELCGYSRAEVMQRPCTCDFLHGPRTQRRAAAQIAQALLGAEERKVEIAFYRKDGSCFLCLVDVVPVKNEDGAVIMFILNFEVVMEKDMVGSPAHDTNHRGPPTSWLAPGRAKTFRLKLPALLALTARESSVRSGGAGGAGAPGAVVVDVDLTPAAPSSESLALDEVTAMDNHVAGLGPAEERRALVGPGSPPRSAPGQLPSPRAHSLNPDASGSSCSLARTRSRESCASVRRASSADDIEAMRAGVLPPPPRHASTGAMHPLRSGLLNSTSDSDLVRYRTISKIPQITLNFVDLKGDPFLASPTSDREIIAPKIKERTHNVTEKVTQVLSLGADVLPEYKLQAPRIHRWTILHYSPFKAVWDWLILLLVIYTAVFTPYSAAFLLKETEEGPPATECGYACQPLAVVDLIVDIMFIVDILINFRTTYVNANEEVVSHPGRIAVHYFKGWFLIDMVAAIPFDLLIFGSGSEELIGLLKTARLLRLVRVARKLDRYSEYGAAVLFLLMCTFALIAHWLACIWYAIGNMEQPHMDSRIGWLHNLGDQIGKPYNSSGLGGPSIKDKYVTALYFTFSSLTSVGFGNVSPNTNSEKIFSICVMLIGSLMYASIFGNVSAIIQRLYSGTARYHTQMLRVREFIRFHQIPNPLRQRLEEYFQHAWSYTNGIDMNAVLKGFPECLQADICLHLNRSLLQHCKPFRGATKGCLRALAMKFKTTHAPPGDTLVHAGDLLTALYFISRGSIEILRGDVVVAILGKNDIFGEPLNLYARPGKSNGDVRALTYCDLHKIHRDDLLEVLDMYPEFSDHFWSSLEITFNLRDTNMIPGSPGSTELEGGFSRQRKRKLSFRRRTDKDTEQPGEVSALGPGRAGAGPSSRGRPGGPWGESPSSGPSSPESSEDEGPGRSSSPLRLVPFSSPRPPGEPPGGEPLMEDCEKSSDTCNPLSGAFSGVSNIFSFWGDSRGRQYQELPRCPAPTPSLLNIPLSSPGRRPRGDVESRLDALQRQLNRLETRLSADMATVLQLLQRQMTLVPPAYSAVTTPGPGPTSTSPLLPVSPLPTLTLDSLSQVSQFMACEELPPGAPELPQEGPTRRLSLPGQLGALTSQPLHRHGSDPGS
Regarding `Cc1nn(C)c(C)c1/C=C/C(=O)c1cccs1`, the “hERG current change (%, negative = inhibition) at 1uM” value is given as 2.33%.
Take `CC(C)C(=O)c1cn(Cc2ccccc2C#N)c2ccccc12`: the “hERG current change (%, negative = inhibition) at 1uM” value is reported as 9.56%.
Next, `O=C1C2C3CC(C(Br)C3Br)C2C(=O)N1c1nccs1` (centres unmarked): 12.4%.
For the molecule `CC1(C)Cc2c(sc3nc(NCCN4CCOCC4)n4ncnc4c23)CO1`, the “hERG current change (%, negative = inhibition) at 1uM” value is 3.25%.
The same measure for `CN(C)S(=O)(=O)c1ccc(C(=O)Nc2nnc(-c3cccs3)o2)cc1`: 14.5%.
The same measure for `CCC1(C)Cc2c(c(=O)n(-c3ccccc3)c3ncnc(N)c23)CO1` (centres unmarked): 10.1%; for `CCOC(=O)C1CCN(C(=O)CN(Cc2ccccc2)S(C)(=O)=O)CC1`: 3.31%.
Consider `CCCNC(=O)N1CCCC(C(=O)c2cccc(Cl)c2)C1` (centres unmarked), for which the “hERG current change (%, negative = inhibition) at 1uM” value is reported as 6.91%.
Next, `COCCCNCC(=O)Nc1sc(C)c(C)c1C(=O)OC.O=C(O)C(=O)O`: 8.91%; `O=C(Nc1ccc2c(c1)OCO2)c1c(F)cccc1F`: 6.05%.
Consider `CC1CN(C(=O)c2ccc(S(=O)(=O)Nc3ccccc3Cl)cc2)CC(C)O1` (centres unmarked), for which the “hERG current change (%, negative = inhibition) at 1uM” value is reported as -2.72%.
`Oc1ccc(-n2cnnn2)cc1`: the “hERG current change (%, negative = inhibition) at 1uM” value is reported as 9.57%.
Turning to `Cc1ccc(N=Nc2c(=O)[nH]n3c(C)cc(C)nc23)cc1`, the “hERG current change (%, negative = inhibition) at 1uM” value worked out at 11.5%.
Turning to `CCN1CCN(C(=S)Nc2ccccc2Cl)CC1`, the “hERG current change (%, negative = inhibition) at 1uM” value worked out at 16.4%.
Regarding `c1cn(CCCNc2ncnc3nc[nH]c23)cn1`, the “hERG current change (%, negative = inhibition) at 1uM” value was 12.5%.
For `CC(=O)Nc1ccc(/C=N\NC(=O)CNS(=O)(=O)c2ccc([N+](=O)[O-])cc2)cc1`, the “hERG current change (%, negative = inhibition) at 1uM” value is given as 9.81%.
As for `CCc1cc(=O)oc2c(CN3CCCC3)c(O)c(Cl)cc12`, the “hERG current change (%, negative = inhibition) at 1uM” value is -1.57%.
The same measure for `CC12CCC(C(=O)N(c3ccccn3)c3ccccn3)(OC1=O)C2(C)C` (centres unmarked): 3.24%; for `Cc1cc(C)n(C(=O)CCCC(=O)n2nc(C)cc2C)n1`: 7.36%; for `O=C(c1cc([N+](=O)[O-])ccc1Cl)N1CCN(c2ccccc2)CC1`: 4.13%.
Consider `O=C(NCc1ccccc1)c1ccc(CN2CCC(Cc3ccccc3)CC2)cc1`, for which the “hERG current change (%, negative = inhibition) at 1uM” value is given as -0.898%.
Regarding `O=C(Cc1n[nH]c(=O)c2ccccc12)NCc1ccc(Cl)cc1`, the “hERG current change (%, negative = inhibition) at 1uM” value is on record as 3.62%.
In the case of `Cc1ccc2c(Cl)cc(Cl)c(OCC(=O)N3CCCC3)c2n1`, the “hERG current change (%, negative = inhibition) at 1uM” value is 8.78%.
For the molecule `C=CCNC(=O)c1onc(CSc2ccc(C(C)C)cc2)c1C(=O)O`, the “hERG current change (%, negative = inhibition) at 1uM” value is recorded as 8.9%.
Next, `Cc1cc(=O)[nH]c(SCC(=O)NCCOc2ccccc2)n1`: 7.33%; `O=C(NC(=S)NCc1cccnc1)c1ccccc1`: 2.2%; `Cc1ccccc1-n1ncc2c(SCC(=O)NC3CCCC3)ncnc21`: 9.68%.
In the case of `COCCN(CC(=O)Nc1cccc(C)c1C)C(=O)c1ccc(-n2cccn2)cc1`, the “hERG current change (%, negative = inhibition) at 1uM” value is listed as 12.7%.
For `Cc1cc2cc(C)c3nnc(SCC(=O)Nc4ccc(S(=O)(=O)N5CCCCC5)cc4)n3c2cc1C`, the “hERG current change (%, negative = inhibition) at 1uM” value is recorded as -0.905%.
On to `COc1ccc(NC(=O)C(Cc2ccccc2)NC(=O)c2ccco2)cc1OC` (centres unmarked), for which the “hERG current change (%, negative = inhibition) at 1uM” value stood at 8.87%.
As to `CNC(=O)c1c(NC(=O)c2cc(-c3cc(C)c(C)cc3O)n[nH]2)sc2c1CCCC2`, the “hERG current change (%, negative = inhibition) at 1uM” value turned out to be 9.36%.
Next, `COc1c2ccoc2c(OCC=C(C)C)c2oc(=O)ccc12`: 17%; `CCc1nc(SCC(=O)Nc2ccnc3ccccc23)n[nH]1`: 10.4%.
Take `COC(=O)c1sccc1NC(=S)Nc1cc(C)cc(C)c1`: the “hERG current change (%, negative = inhibition) at 1uM” value turned out to be 2.85%.
Regarding `Cc1cccc(C)c1NC(=O)COC(=O)CCC(=O)c1cccs1`, the “hERG current change (%, negative = inhibition) at 1uM” value came out at 13.8%.
`Cc1nnc(SCC(=O)Nc2sc3c(c2C(=O)c2ccccc2)CCCC3)s1`: the “hERG current change (%, negative = inhibition) at 1uM” value came out at 17%.
The same measure for `O=C(Nc1ccccc1)c1nsnc1C(=O)Nc1ccccc1`: 10.8%.
Consider `O=C(Cc1ccccc1)N1CCN(C(=O)c2ccc([N+](=O)[O-])cc2)CC1`, for which the “hERG current change (%, negative = inhibition) at 1uM” value was -25.4%.
Take `COc1ccccc1CN1CCCC(N2CCN(c3ccccc3OC)CC2)C1` (centres unmarked): the “hERG current change (%, negative = inhibition) at 1uM” value is given as 6.71%.
In the case of `COCCNC(=O)CN(Cc1ccccc1)S(=O)(=O)c1ccc2nc(C)sc2c1`, the “hERG current change (%, negative = inhibition) at 1uM” value stood at 9.19%.
The same measure for `CN1C(=O)c2ccc(NC(=O)c3c(C(=O)O)cccc3[N+](=O)[O-])cc2C1=O`: 7.87%.
On to `CC(NC(=O)/C(=C\c1ccco1)NC(=O)c1ccco1)C(=O)O` (centres unmarked), for which the “hERG current change (%, negative = inhibition) at 1uM” value turned out to be 14.1%.
For `Cc1c(CCCN)c2ccccc2n1Cc1ccccc1.Cl`, the “hERG current change (%, negative = inhibition) at 1uM” value is given as 6.34%.
Take `CCOC(=O)/C=c1\s/c(=C\c2ccc(C(=O)OC)cc2)c(=O)n1CC(=O)Nc1ccccc1.Cl`: the “hERG current change (%, negative = inhibition) at 1uM” value was found to be 10.1%.
Consider `COc1ccc(OCCC(=O)NCCN2CCOCC2)cc1.Cl`, for which the “hERG current change (%, negative = inhibition) at 1uM” value is on record as 12.7%.
`CCN(C(=S)Nc1cc(S(=O)(=O)N2CCOCC2)ccc1Cl)c1cccc2ccccc12`: the “hERG current change (%, negative = inhibition) at 1uM” value was found to be 4.45%.
Next, `CN(C(=O)CSc1cn(CC(=O)N2CCOCC2)c2ccccc12)c1ccccc1`: 20.7%.
On to `Cc1c(NC(=O)c2ccc(COc3ccc4ccccc4c3)o2)c(=O)n(-c2ccccc2)n1C`, for which the “hERG current change (%, negative = inhibition) at 1uM” value was determined as 18.2%.
Next, `COC(=O)Cc1c(CSc2ccccc2)oc2ccc(O)c(CN(C)C)c12`: -10.8%; `Cc1cc(C)cc(N2C(N)=NC(N)=NC2c2cccc(Cl)c2)c1.Cl` (centres unmarked): 7.55%; `O=[N+]([O-])c1cc(/C=N/n2c(-c3ccncc3)n[nH]c2=S)ccc1Cl`: 6.47%.
As to `Cl.NC[C@@]12CCCC1C1CCC2C1` (some centres unmarked), the “hERG current change (%, negative = inhibition) at 1uM” value is on record as -10.4%.
`CN(Cc1ccccc1)C(=C(Cl)Cl)C(=C1NCCN1)[N+](=O)[O-]`: the “hERG current change (%, negative = inhibition) at 1uM” value is 10.1%.
Regarding `CCN(CC)CCn1c(NC(=O)c2ccc(Cl)cc2)nc2ccccc21`, the “hERG current change (%, negative = inhibition) at 1uM” value was -0.305%.
Next, `CC(C)(C)C1CCC(C(=O)OCC(=O)Nc2ccc3[nH]c(=O)[nH]c3c2)CC1` (centres unmarked): 12.6%; `C=CCN(c1ccccc1)S(=O)(=O)c1cccc(C(=O)NCC(c2ccccc2OC)N2CCCC2)c1` (centres unmarked): -12.9%.
Next, `COc1ccc(-c2csc3[nH]c(=S)n(-c4ccccc4)c(=O)c23)cc1OC`: 9.11%; `O=C(OC1CCOC1=O)c1cc(-c2ccc(Br)cc2)nc2ccccc12` (centres unmarked): -8.73%; `S=C(Nc1ccc(Nc2ccccc2)cc1)NN1CCOCC1`: 10.7%.
Consider `O=C(CSc1nc(C2CC2)nc2ccccc12)N1c2ccccc2Sc2ccc(C(F)(F)F)cc21`, for which the “hERG current change (%, negative = inhibition) at 1uM” value is reported as 3.63%.
`CCOC(=O)c1nnn2c3ccccc3c(=O)n(C)c12`: the “hERG current change (%, negative = inhibition) at 1uM” value was determined as 5.58%.
Next, `C/C(=N\Nc1cccc(C(=O)O)c1)c1cc2ccccc2o1`: 7.85%.
On to `Cc1nc(N2CCN(Cc3ccccc3)CC2)nc2c1C(=O)CCC2`, for which the “hERG current change (%, negative = inhibition) at 1uM” value is recorded as 13.7%.
On to `CSc1ccc(CCNC(=O)C2CCCN(c3ncnc4c3nc3n4CCCCC3)C2)cc1` (centres unmarked), for which the “hERG current change (%, negative = inhibition) at 1uM” value is recorded as -2.32%.
As for `COc1ccc(C)cc1NC(=S)N1CCOCC1`, the “hERG current change (%, negative = inhibition) at 1uM” value came out at 13.4%.
As to `COc1ccc(C(=O)CSc2n[nH]c(-c3ccncc3)n2)cc1[N+](=O)[O-]`, the “hERG current change (%, negative = inhibition) at 1uM” value came out at 19.3%.
The same measure for `N#Cc1ccc(OS(=O)(=O)c2ccc(-c3ccon3)s2)cc1`: -20.8%; for `O=C(COc1ccccc1F)NNC(=O)c1ccc2c(=O)n3c(nc2c1)CCC3`: 9.25%.
For the molecule `CC(=O)c1csc(COc2cc(Cl)cc(Cl)c2)n1`, the “hERG current change (%, negative = inhibition) at 1uM” value amounted to 6.69%.
With `Cc1nc(Cl)cc(CS(=O)(=O)c2ccc(Cl)cc2)n1`, the “hERG current change (%, negative = inhibition) at 1uM” value was found to be 19%.
Turning to `CC1(C)C2CCC13CS(=O)(=O)N[C@@H]3C2` (some centres unmarked), the “hERG current change (%, negative = inhibition) at 1uM” value worked out at 17.5%.
The same measure for `COCCN(C(=O)COC(=O)CNC(=O)c1cccs1)c1c(N)n(Cc2ccccc2)c(=O)[nH]c1=O`: 10.3%.
Regarding `COc1ccc(C(CNC(=O)CCOc2ccccc2)N(C)C)cc1` (centres unmarked), the “hERG current change (%, negative = inhibition) at 1uM” value is reported as -13.2%.
On to `Clc1ccc(Cn2c(-c3cccnc3Cl)nc3ccccc32)cc1`, for which the “hERG current change (%, negative = inhibition) at 1uM” value is listed as -15.7%.
Turning to `CCOc1cccc2c1OC1(C)CC2NC(=O)N1c1cccc(C(=O)N2CCN(c3ccccn3)CC2)c1` (centres unmarked), the “hERG current change (%, negative = inhibition) at 1uM” value came to 10.5%.
As to `COc1ccc(CC(=O)NCc2nnc(SCC(=O)Nc3nccs3)n2-c2ccccc2)cc1`, the “hERG current change (%, negative = inhibition) at 1uM” value was 2.57%.
`N#CCCCSc1nnc(-c2ccccn2)o1`: the “hERG current change (%, negative = inhibition) at 1uM” value turned out to be 8.28%.
Turning to `O=C(CNc1ccccc1F)Nc1cc(S(=O)(=O)N2CCCCC2)ccc1Cl`, the “hERG current change (%, negative = inhibition) at 1uM” value stood at 7.94%.
`CCOC(=O)c1c(C)[nH]c(C)c1C(=O)COC(=O)c1cc(OC)c(OC)cc1OC`: the “hERG current change (%, negative = inhibition) at 1uM” value amounted to 8.86%.
With `O=C(O)c1ccc(OCCOc2ccccc2)cc1`, the “hERG current change (%, negative = inhibition) at 1uM” value came to 1.14%.
Next, `C=CCOc1c(Br)cc(C2C3=C(CCCC3=O)N(C)C3=C2C(=O)CCC3)cc1OCC`: 8.43%; `CS(=O)(=O)N1N=C(c2ccccc2)CC1c1ccc2c(c1)OCO2` (centres unmarked): 11.6%.
With `O=C(COC(=O)CNC(=O)c1cccc(Br)c1)Nc1nnc(-c2ccccc2)o1`, the “hERG current change (%, negative = inhibition) at 1uM” value was 9.64%.
The same measure for `CCOC(=O)c1sc(N)c(C#N)c1COC(=O)CNC(=O)c1cc(OC)c(OC)c(OC)c1`: 4.68%; for `CCCCn1nc(CC(=O)O)c2ccccc2c1=O`: 15.4%.
For `CCOc1cc(/C=C2\SC(=O)N=C2N)ccc1O`, the “hERG current change (%, negative = inhibition) at 1uM” value was 14.1%.
On to `C=CCn1c(SCc2c(Cl)cccc2Cl)nnc1-c1cccnc1`, for which the “hERG current change (%, negative = inhibition) at 1uM” value is -2.22%.
In the case of `CC(C(=O)Nc1ccc(S(=O)(=O)N2CCOCC2)cc1)N(c1ccccc1)S(C)(=O)=O` (centres unmarked), the “hERG current change (%, negative = inhibition) at 1uM” value was determined as 9.96%.
Next, `S=C(Nc1ccccc1)N1CCN(c2ccc(N3CCOCC3)nn2)CC1`: 9.8%.
